Reference: PMC10117100
These are yes or no findings as the source states them, for the method shown. In cells and extracts the contact can be indirect. Some entries that bind do so weakly or less than the wild type. For part of these data: Where a sequence is shown, tags or fusion partners need not be part of it.

Chains of the proteins cited; added tags and fusions are not shown.
UniProt Q16254: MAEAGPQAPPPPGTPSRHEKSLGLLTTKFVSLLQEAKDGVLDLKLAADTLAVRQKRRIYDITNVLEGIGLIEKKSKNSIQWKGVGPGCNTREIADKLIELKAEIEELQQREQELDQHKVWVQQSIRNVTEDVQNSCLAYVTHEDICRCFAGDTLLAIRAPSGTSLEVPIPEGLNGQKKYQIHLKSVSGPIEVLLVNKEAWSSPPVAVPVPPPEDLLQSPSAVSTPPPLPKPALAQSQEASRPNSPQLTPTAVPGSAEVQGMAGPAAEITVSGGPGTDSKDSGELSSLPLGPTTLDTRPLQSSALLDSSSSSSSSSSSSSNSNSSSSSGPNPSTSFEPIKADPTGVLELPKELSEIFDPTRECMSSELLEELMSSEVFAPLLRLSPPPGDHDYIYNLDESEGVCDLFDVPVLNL
UniProt P03129: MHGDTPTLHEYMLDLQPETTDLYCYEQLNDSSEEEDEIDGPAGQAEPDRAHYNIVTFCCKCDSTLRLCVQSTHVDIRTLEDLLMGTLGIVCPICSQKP

Tests used:
[1] = biological target: endogenous E2F4 (38HK) (human (endogenous in 38HK)) (UniProt Q16254); assay: co-IP; nuclear extracts of 38HK stably expressing HA-ΔNp73α, sucrose gradient, fractions precipitated with anti-E2F4 Sepharose beads, Western blot
[2] = biological target: endogenous E2F4 (38HK) (human (endogenous in 38HK)) (UniProt Q16254); assay: co-IP; total 38HK nuclear extract, anti-E2F4 antibody or IgG, Western blot of endogenous proteins
[3] = biological target: Gluc1-16.E7 (human papillomavirus type 16) (UniProt P03129); assay: split reporter; Gaussia princeps protein complementation assay (GPCA): Gluc1 and Gluc2 N-terminal fusions co-transfected in HEK293T, luminescence of lysates after 48 h as normalized luminescence ratio (NLR); pairs count as interacting if NLR is above 5
[4] = biological target: T1, endogenous E2F4 (38HK) (human (endogenous in 38HK)), Q16254; assay: co-IP; total 38HK nuclear extract, anti-E2F4 antibody or IgG, Western blot of endogenous proteins; details: remark: other sources report otherwise
[5] = biological target: T1, endogenous E2F4 (38HK) (human …); assay: co-IP; nuclear extracts of 38HK stably expressing HA-ΔNp73α, sucrose gradient, fractions precipitated with anti-E2F4 Sepharose beads, Western blot; details: remark: other sources report otherwise

B1: HA-ΔNp73α (protein, UniProt O15350-8 1-587)
chain: MLYVGDPARHLATAQFNLLSSTMDQMSSRAASASPYTPEHAASVPTHSPYAQPSSTFDTMSPAPVIPSNTDYPGPHHFEVTFQQSSTAKSATWTYSPLLKKLYCQIAKTCPIQIKVSTPPPPGTAIRAMPVYKKAEHVTDVVKRCPNHELGRDFNEGQSAPASHLIRVEGNNLSQYVDDPVTGRQSVVVPYEPPQVGTEFTTILYNFMCNSSCVGGMNRRPILIIITLEMRDGQVLGRRSFEGRICACPGRDRKADEDHYREQQALNESSAKNGAASKRAFKQSPPAVPALGAGVKKRRHGDEDTYYLQVRGRENFEILMKLKESLELMELVPQPLVDSYRQQQQLLQRPSHLQPPSYGPVLSPMNKVHGGMNKLPSVNQLVGQPPPHSSAATPNLGPVGPGMLNNHGHAVPANGEMSSSHSAQSMVSGSHCTPPPPYHADPSLVSFLTGLGCPNCIEYFTSQGLQSIYHLQNLTIEDLGALKIPEQYRMTIWRGLQDLKQGHDYSTAQQLLRSSNAATISIGGSGELQRQRVMEAVHFRVRHTITIPNRGGPGGGPDEWADFGFDLPDCKARKQPIKEEFTEAEIH
Question: For B1, which binding [1] is on record?
Answer: binds

B2: endogenous ΔNp73α (38HK) (protein, UniProt O15350-8 1-587)
chain: MLYVGDPARHLATAQFNLLSSTMDQMSSRAASASPYTPEHAASVPTHSPYAQPSSTFDTMSPAPVIPSNTDYPGPHHFEVTFQQSSTAKSATWTYSPLLKKLYCQIAKTCPIQIKVSTPPPPGTAIRAMPVYKKAEHVTDVVKRCPNHELGRDFNEGQSAPASHLIRVEGNNLSQYVDDPVTGRQSVVVPYEPPQVGTEFTTILYNFMCNSSCVGGMNRRPILIIITLEMRDGQVLGRRSFEGRICACPGRDRKADEDHYREQQALNESSAKNGAASKRAFKQSPPAVPALGAGVKKRRHGDEDTYYLQVRGRENFEILMKLKESLELMELVPQPLVDSYRQQQQLLQRPSHLQPPSYGPVLSPMNKVHGGMNKLPSVNQLVGQPPPHSSAATPNLGPVGPGMLNNHGHAVPANGEMSSSHSAQSMVSGSHCTPPPPYHADPSLVSFLTGLGCPNCIEYFTSQGLQSIYHLQNLTIEDLGALKIPEQYRMTIWRGLQDLKQGHDYSTAQQLLRSSNAATISIGGSGELQRQRVMEAVHFRVRHTITIPNRGGPGGGPDEWADFGFDLPDCKARKQPIKEEFTEAEIH
Question: Which binding [2] does the source give for B2 here?
Answer: binds

B3: Gluc2-p107 (protein, UniProt P28749 1-1068)
chain: MFEDKPHAEGAAVVAAAGEALQALCQELNLDEGSAAEALDDFTAIRGNYSLEGEVTHWLACSLYVACRKSIIPTVGKGIMEGNCVSLTRILRSAKLSLIQFFSKMKKWMDMSNLPQEFRERIERLERNFEVSTVIFKKYEPIFLDIFQNPYEEPPKLPRSRKQRRIPCSVKDLFNFCWTLFVYTKGNFRMIGDDLVNSYHLLLCCLDLIFANAIMCPNRQDLLNPSFKGLPSDFHTADFTASEEPPCIIAVLCELHDGLLVEAKGIKEHYFKPYISKLFDRKILKGECLLDLSSFTDNSKAVNKEYEEYVLTVGDFDERIFLGADAEEEIGTPRKFTRDTPLGKLTAQANVEYNLQQHFEKKRSFAPSTPLTGRRYLREKEAVITPVASATQSVSRLQSIVAGLKNAPSDQLINIFESCVRNPVENIMKILKGIGETFCQHYTQSTDEQPGSHIDFAVNRLKLAEILYYKILETVMVQETRRLHGMDMSVLLEQDIFHRSLMACCLEIVLFAYSSPRTFPWIIEVLNLQPFYFYKVIEVVIRSEEGLSRDMVKHLNSIEEQILESLAWSHDSALWEALQVSANKVPTCEEVIFPNNFETGNGGNVQGHLPLMPMSPLMHPRVKEVRTDSGSLRRDMQPLSPISVHERYSSPTAGSAKRRLFGEDPPKEMLMDKIITEGTKLKIAPSSSITAENVSILPGQTLLTMATAPVTGTTGHKVTIPLHGVANDAGEITLIPLSMNTNQESKVKSPVSLTAHSLIGASPKQTNLTKAQEVHSTGINRPKRTGSLALFYRKVYHLASVRLRDLCLKLDVSNELRRKIWTCFEFTLVHCPDLMKDRHLDQLLLCAFYIMAKVTKEERTFQEIMKSYRNQPQANSHVYRSVLLKSIPREVVAYNKNINDDFEMIDCDLEDATKTPDCSSGPVKEERGDLIKFYNTIYVGRVKSFALKYDLANQDHMMDAPPLSPFPHIKQQPGSPRRISQQHSIYISPHKNGSGLTPRSALLYKFNGSPSKSLKDINNMIRQGEQRTKKRVIAIDSDAESPAKRVCQENDDVLLKRLQDVVSERANH
Question: For B3, which binding [3] is on record?
Answer: binds

B4: Gluc2-pRb (protein, UniProt P06400 1-928)
chain: MPPKTPRKTAATAAAAAAEPPAPPPPPPPEEDPEQDSGPEDLPLVRLEFEETEEPDFTALCQKLKIPDHVRERAWLTWEKVSSVDGVLGGYIQKKKELWGICIFIAAVDLDEMSFTFTELQKNIEISVHKFFNLLKEIDTSTKVDNAMSRLLKKYDVLFALFSKLERTCELIYLTQPSSSISTEINSALVLKVSWITFLLAKGEVLQMEDDLVISFQLMLCVLDYFIKLSPPMLLKEPYKTAVIPINGSPRTPRRGQNRSARIAKQLENDTRIIEVLCKEHECNIDEVKNVYFKNFIPFMNSLGLVTSNGLPEVENLSKRYEEIYLKNKDLDARLFLDHDKTLQTDSIDSFETQRTPRKSNLDEEVNVIPPHTPVRTVMNTIQQLMMILNSASDQPSENLISYFNNCTVNPKESILKRVKDIGYIFKEKFAKAVGQGCVEIGSQRYKLGVRLYYRVMESMLKSEEERLSIQNFSKLLNDNIFHMSLLACALEVVMATYSRSTSQNLDSGTDLSFPWILNVLNLKAFDFYKVIESFIKAEGNLTREMIKHLERCEHRIMESLAWLSDSPLFDLIKQSKDREGPTDHLESACPLNLPLQNNHTAADMYLSPVRSPKKKGSTTRVNSTANAETQATSAFQTQKPLKSTSLSLFYKKVYRLAYLRLNTLCERLLSEHPELEHIIWTLFQHTLQNEYELMRDRHLDQIMMCSMYGICKVKNIDLKFKIIVTAYKDLPHAVQETFKRVLIKEEEYDSIIVFYNSVFMQRLKTNILQYASTRPPTLSPIPHIPRSPYKFPSSPLRIPGGNIYISPLKSPYKISEGLPTPTKMTPRSRILVSIGESFGTSEKFQKINQMVCNSDRVLKRSAEGSNPPKPLKKLRFDIEGSDEADGSKHLPGESKFQQKLAEMTSTRTRMQKQKMNDSMDTSNKEEK
Question: With B4 as the binder, how does the binding [3] read?
Answer: binds

B5: endogenous p130 (38HK), Q08999 1-1139 (protein)
chain: MPSGGDQSPPPPPPPPAAAASDEEEEDDGEAEDAAPPAESPTPQIQQRFDELCSRLNMDEAARAEAWDSYRSMSESYTLEGNDLHWLACALYVACRKSVPTVSKGTVEGNYVSLTRILKCSEQSLIEFFNKMKKWEDMANLPPHFRERTERLERNFTVSAVIFKKYEPIFQDIFKYPQEEQPRQQRGRKQRRQPCTVSEIFHFCWVLFIYAKGNFPMISDDLVNSYHLLLCALDLVYGNALQCSNRKELVNPNFKGLSEDFHAKDSKPSSDPPCIIEKLCSLHDGLVLEAKGIKEHFWKPYIRKLYEKKLLKGKEENLTGFLEPGNFGESFKAINKAYEEYVLSVGNLDERIFLGEDAEEEIGTLSRCLNAGSGTETAERVQMKNILQQHFDKSKALRISTPLTGVRYIKENSPCVTPVSTATHSLSRLHTMLTGLRNAPSEKLEQILRTCSRDPTQAIANRLKEMFEIYSQHFQPDEDFSNCAKEIASKHFRFAEMLYYKVLESVIEQEQKRLGDMDLSGILEQDAFHRSLLACCLEVVTFSYKPPGNFPFITEIFDVPLYHFYKVIEVFIRAEDGLCREVVKHLNQIEEQILDHLAWKPESPLWEKIRDNENRVPTCEEVMPPQNLERADEICIAGSPLTPRRVTEVRADTGGLGRSITSPTTLYDRYSSPPASTTRRRLFVENDSPSDGGTPGRMPPQPLVNAVPVQNVSGETVSVTPVPGQTLVTMATATVTANNGQTVTIPVQGIANENGGITFFPVQVNVGGQAQAVTGSIQPLSAQALAGSLSSQQVTGTTLQVPGQVAIQQISPGGQQQKQGQSVTSSSNRPRKTSSLSLFFRKVYHLAAVRLRDLCAKLDISDELRKKIWTCFEFSIIQCPELMMDRHLDQLLMCAIYVMAKVTKEDKSFQNIMRCYRTQPQARSQVYRSVLIKGKRKRRNSGSSDSRSHQNSPTELNKDRTSRDSSPVMRSSSTLPVPQPSSAPPTPTRLTGANSDMEEEERGDLIQFYNNIYIKQIKTFAMKYSQANMDAPPLSPYPFVRTGSPRRIQLSQNHPVYISPHKNETMLSPREKIFYYFSNSPSKRLREINSMIRTGETPTKKRGILLEDGSESPAKRICPENHSALLRRLQDVANDRGSH
Question: With B5 as the binder, how does the binding [4] read?
Answer: binds

Question: And the binding [5]?
Answer: binds
